Results from paper PMC6919601, “Identification of Plasmodium dipeptidyl aminopeptidase allosteric inhibitors by high throughput screening” (PLoS ONE, 2019).
Screen size: about 110,000 compounds; about 230 (0.21%) showed an effect of 50% or more. Some of the results follow.

Target: DPAP1 (Plasmodium falciparum, UniProt Q8IIJ9)
Experiment: primary screen, percent inhibition; read by cleavage of a fluorogenic dipeptide substrate; higher = more effect of the substance
Design: species or system P. falciparum D10 trophozoite lysates; single well
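Also: 30 min substrate incubation versus DMSO and 10 µM JCP410 controls.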

DPAP1, sequence (Q8IIJ9 whole entry, looked up): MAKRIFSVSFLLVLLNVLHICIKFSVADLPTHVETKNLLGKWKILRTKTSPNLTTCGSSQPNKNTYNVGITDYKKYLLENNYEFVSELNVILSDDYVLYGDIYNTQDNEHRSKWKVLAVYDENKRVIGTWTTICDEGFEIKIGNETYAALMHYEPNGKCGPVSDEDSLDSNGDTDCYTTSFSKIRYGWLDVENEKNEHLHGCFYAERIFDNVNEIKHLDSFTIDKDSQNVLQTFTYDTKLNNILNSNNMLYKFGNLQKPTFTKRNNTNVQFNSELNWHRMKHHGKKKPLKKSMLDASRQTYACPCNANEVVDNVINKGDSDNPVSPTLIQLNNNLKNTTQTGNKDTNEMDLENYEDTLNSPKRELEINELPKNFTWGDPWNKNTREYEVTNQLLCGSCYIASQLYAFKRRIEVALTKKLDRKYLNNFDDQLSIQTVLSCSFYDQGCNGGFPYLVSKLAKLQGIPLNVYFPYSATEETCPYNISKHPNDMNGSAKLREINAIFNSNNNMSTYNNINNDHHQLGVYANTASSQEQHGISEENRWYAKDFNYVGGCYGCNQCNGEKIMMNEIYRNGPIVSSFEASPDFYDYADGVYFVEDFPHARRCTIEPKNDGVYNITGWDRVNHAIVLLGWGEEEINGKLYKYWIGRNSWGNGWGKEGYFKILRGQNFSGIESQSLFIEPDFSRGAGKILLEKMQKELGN

Q: For `CS(=O)(=O)N(CC(=O)NCc1ccc(Cl)cc1Cl)C1CCCCC1`, which “% Inhibition @ 10 uM” value is on record?
A: The value was -0.992%.

Q: `CNc1cc(C)nc(-c2ccc(Br)cc2)n1` was tested. Which “% Inhibition @ 10 uM” value did it give?
A: Its value is -4.15%.

Q: `Cc1ccc(Cn2c(C)c3cnn(CC(=O)NCCN4CCN(C)CC4)c(=O)c3c2C)cc1` was tested. Which “% Inhibition @ 10 uM” value did it give?
A: Its value is 1.22%.

Q: For `Cc1cc(C)n(-c2cc(Oc3ccccc3)nc(C)n2)n1`, which “% Inhibition @ 10 uM” value is on record?
A: Its value is 2.03%.

Q: Which “% Inhibition @ 10 uM” value does the source give for `Cn1c(C(=O)N2CCN(C(=O)c3ccco3)CC2)cc2sccc21` here?
A: The value was -4.85%.

Q: `Cc1ccc(OCC(=O)Nc2ccccc2)cc1` was tested. Which “% Inhibition @ 10 uM” value did it give?
A: Its value is -0.116%.

Q: With `O=C(NCc1ccccc1Cl)c1cc(-c2ccccc2)c(N2CCOCC2)s1` as the compound, how does the “% Inhibition @ 10 uM” value read?
A: Its value is -2.83%.

Q: How did the “% Inhibition @ 10 uM” value turn out when `CC(=O)Nc1ccc(NC(=O)COc2ccc(Cl)cc2Cl)cc1` was run?
A: Its value is 1.33%.

Q: `O=C(CN1C(=O)S/C(=C/c2cc3c(cc2Br)OCO3)C1=O)Nc1ccccc1F` was tested. Which “% Inhibition @ 10 uM” value did it give?
A: The value was -1.43%.

Q: Which “% Inhibition @ 10 uM” value does the source give for `CCN1C(=O)c2ccc(C(=O)c3ccc(C(=O)O)cc3)cc2C1=O` here?
A: Its value is -7.14%.

Q: For `CCN1CCC(NCC(c2ccccc2)c2ccccc2)CC1`, which “% Inhibition @ 10 uM” value is on record?
A: Its value is -5.44%.

Q: How did the “% Inhibition @ 10 uM” value turn out when `CC1(c2ccccc2)CC(C)(C)N(Cc2ccc([N+](=O)[O-])cc2)c2ccccc21` (centres unmarked) was run?
A: Its value is 1.35%.

Q: Which “% Inhibition @ 10 uM” value does the source give for `COc1ccc(S(=O)(=O)Nc2cccc(C(F)(F)F)c2)cc1` here?
A: The value was 0.526%.

Q: Which “% Inhibition @ 10 uM” value does the source give for `COc1ccc(CN2CCN(C(=O)Cn3ncc4ccsc4c3=O)CC2)c(OC)c1OC` here?
A: Its value is 9.33%.

Q: With `Cn1cccc1Cc1nnc(SCC(=O)NCC2CCCO2)n1-c1cccc(C(F)(F)F)c1` (centres unmarked) as the compound, how does the “% Inhibition @ 10 uM” value read?
A: Its value is -4.97%.

Q: Which “% Inhibition @ 10 uM” value does the source give for `O=C(O)C1CCC(Cn2c(SCc3cc(=O)n4ccccc4n3)nc3ccsc3c2=O)CC1` (centres unmarked) here?
A: Its value is 6.5%.

Q: For `O=C1C2CC=CCC2C(=O)N1c1ccc(OCc2ccccc2)cc1` (centres unmarked), which “% Inhibition @ 10 uM” value is on record?
A: The value was 1.52%.

Q: Which “% Inhibition @ 10 uM” value does the source give for `CCC(=O)N1c2ccccc2N=C2CC(C)(C)CC(O)=C2C1c1cccc(OC)c1OC` (centres unmarked) here?
A: Its value is 4.07%.

Q: With `O=C(NCCCN1CCOCC1)C1CC2CCC1C2` (centres unmarked) as the compound, how does the “% Inhibition @ 10 uM” value read?
A: Its value is -3.27%.

Q: Which “% Inhibition @ 10 uM” value does the source give for `Fc1ccc(CN2CCN(c3ncccn3)CC2)cc1F` here?
A: The value was -3.72%.

Q: Which “% Inhibition @ 10 uM” value does the source give for `CC1=C(C#N)C(=O)N(CCc2ccccc2)C(=O)/C1=C/c1ccc(-c2ccc(S(N)(=O)=O)cc2)o1` here?
A: Its value is 0.884%.

Q: How did the “% Inhibition @ 10 uM” value turn out when `CC(C)C[C@@H](C(=O)NC1(C#N)CC1)c1cccc(-c2ccc(N3CCN(C(C)(C)C)CC3)cc2)c1` was run?
A: Its value is -1.41%.

Q: With `CCOC(=O)/C=C/C1C[C@@H]1c1ccccc1` (some centres unmarked) as the compound, how does the “% Inhibition @ 10 uM” value read?
A: Its value is 1.4%.

Q: For `Cn1c2ccccc2c2nnc(N3CCN(Cc4ccccc4)CC3)nc21`, which “% Inhibition @ 10 uM” value is on record?
A: The value was -7.32%.

Q: Which “% Inhibition @ 10 uM” value does the source give for `O=C1C(=O)N(CN2CCc3ccccc3C2)c2ccc(Br)cc21` here?
A: The value was 5.12%.

Q: Which “% Inhibition @ 10 uM” value does the source give for `CC1(C)CC2=Nc3ccccc3NC(c3cccc([N+](=O)[O-])c3)C2=C(O)C1` (centres unmarked) here?
A: The value was 3.74%.

Q: With `Cc1ccc(C2=CC(c3ccc(F)c(Br)c3)n3nnnc3N2)cc1` (centres unmarked) as the compound, how does the “% Inhibition @ 10 uM” value read?
A: The value was -7.32%.

Q: With `O=C(c1scc2c1CCCC2)N1CCOCC1` as the compound, how does the “% Inhibition @ 10 uM” value read?
A: Its value is 4.11%.

Q: For `COCCNC(=O)C1CCCN(c2nnc(-n3cccc3)s2)C1` (centres unmarked), which “% Inhibition @ 10 uM” value is on record?
A: The value was -2.25%.

Q: For `CCn1cc(CNC(=O)c2cc3n(n2)C(C(F)(F)F)CC(c2ccco2)N3)c(C)n1` (centres unmarked), which “% Inhibition @ 10 uM” value is on record?
A: Its value is -0.958%.

Q: For `CCOCCCNC(=O)/C(C#N)=C/c1c(Oc2ccc(OC)cc2)nc2ccccn2c1=O`, which “% Inhibition @ 10 uM” value is on record?
A: The value was -1.86%.

Q: With `Cc1ccc(S(=O)(=O)NCCC(=O)NCCN2CCCCCC2)cc1` as the compound, how does the “% Inhibition @ 10 uM” value read?
A: The value was -3.12%.

Q: For `O=C1NC2(CCN(C(=O)c3ccc4c(c3)OCO4)CC2)N=C1c1ccc(Cl)cc1`, which “% Inhibition @ 10 uM” value is on record?
A: Its value is 6.31%.

Q: With `O=C(CSc1ncnc2c1sc1ccccc12)NCc1ccccc1Cl` as the compound, how does the “% Inhibition @ 10 uM” value read?
A: The value was -0.406%.

Q: With `Cc1ccc(NC(=O)/C=N/O)c(C)c1` as the compound, how does the “% Inhibition @ 10 uM” value read?
A: Its value is 1.42%.

Q: Which “% Inhibition @ 10 uM” value does the source give for `Cc1n[nH]c(C)c1N1C(=O)c2cccc3c(Br)ccc(c23)C1=O` here?
A: The value was -3.83%.

Q: `CN(C(=O)c1cc2ccccn2c1)c1ccccc1` was tested. Which “% Inhibition @ 10 uM” value did it give?
A: The value was -2.65%.

Q: `CC(C(=O)NCc1ccccn1)n1c2ccccc2c2cnnc(O)c21` (centres unmarked) was tested. Which “% Inhibition @ 10 uM” value did it give?
A: Its value is 4.55%.

Q: Which “% Inhibition @ 10 uM” value does the source give for `Cc1cc(C)c2c(-n3cccc3)c(C(=O)N3CCN(Cc4ccccc4)CC3)sc2n1` here?
A: The value was -1.3%.

Q: `O=C(NC1CC1)c1ccc(CS(=O)(=O)c2c(Cl)cccc2Cl)o1` was tested. Which “% Inhibition @ 10 uM” value did it give?
A: The value was 8.39%.

Q: With `CCOC(=O)C(/C=N/c1cccc(C)n1)=C(/O)OCC` as the compound, how does the “% Inhibition @ 10 uM” value read?
A: The value was -5.36%.

Q: How did the “% Inhibition @ 10 uM” value turn out when `Cc1ccc(S(=O)(=O)N(CC(=O)N2CCOCC2)c2ccc(C)c(C)c2)cc1` was run?
A: The value was 3.53%.

Q: Which “% Inhibition @ 10 uM” value does the source give for `O=C(c1ccc(O)cc1)c1ccc(C(=O)O)c(C(=O)O)c1` here?
A: The value was -3.48%.

Q: Which “% Inhibition @ 10 uM” value does the source give for `O=C1c2ccc(F)cc2C(=O)N1CCO` here?
A: The value was 0.912%.

Q: How did the “% Inhibition @ 10 uM” value turn out when `CCOc1ccc(CNC(=O)C2CC(=O)N(C3CCCC3)C2)cc1OC` (centres unmarked) was run?
A: Its value is 3.79%.

Q: Which “% Inhibition @ 10 uM” value does the source give for `COc1ccc2c(c1OC)C(=O)N(c1cccc(F)c1)C2=O` here?
A: The value was -1.37%.

Q: Which “% Inhibition @ 10 uM” value does the source give for `CCOC(=O)c1cc(S(=O)(=O)N2CCN(C(=O)OCC)CC2)cn1C` here?
A: Its value is -1.06%.

Q: Which “% Inhibition @ 10 uM” value does the source give for `CN(C)CCN(C)Cc1cccc(Cl)c1` here?
A: Its value is 1.83%.

Q: How did the “% Inhibition @ 10 uM” value turn out when `COC(=O)C1=CN(Cc2ccc(Cl)cc2)C=C(C(=O)OC)C1c1ccccc1OC(C)C` was run?
A: Its value is 4.99%.

Q: Which “% Inhibition @ 10 uM” value does the source give for `N#Cc1c(N)n(-c2cccc(S(N)(=O)=O)c2)c2nc3ccccc3nc12` here?
A: Its value is 3.31%.

Q: Which “% Inhibition @ 10 uM” value does the source give for `NC1=NC(=O)/C(=C\c2ccc(-c3ccc(Cl)c(Cl)c3)o2)S1` here?
A: The value was 31.8%.

Q: Which “% Inhibition @ 10 uM” value does the source give for `COc1ccc(S(=O)(=O)N2CCCC2C(=O)O)cc1OC` (centres unmarked) here?
A: Its value is 3.65%.

Q: `O=C(Nc1cnn(C23CC4CC(CC(C4)C2)C3)c1)C1CC(c2c(F)cccc2Cl)=NO1` (centres unmarked) was tested. Which “% Inhibition @ 10 uM” value did it give?
A: Its value is 5.12%.

Q: `CN1C2CCC1CC(OC(=O)CCN1CCCCC1)C2` (centres unmarked) was tested. Which “% Inhibition @ 10 uM” value did it give?
A: The value was -0.687%.

Q: For `Cc1ccc(C(=O)Nc2ccccc2O)cc1`, which “% Inhibition @ 10 uM” value is on record?
A: The value was 0.135%.

Q: How did the “% Inhibition @ 10 uM” value turn out when `CC(C)N(CCCNC(=O)Nc1cn(C)c(=O)c2ccccc12)Cc1ccccc1` was run?
A: The value was 5.12%.

Q: Which “% Inhibition @ 10 uM” value does the source give for `CCC(CC)CC(NC(=O)c1ccc(C(C)(C)C)cc1)C(=O)NCC#N` (centres unmarked) here?
A: Its value is -3.04%.

Q: Which “% Inhibition @ 10 uM” value does the source give for `COc1cc(/C=C(\C#N)c2[nH]nc(N)c2C#N)ccc1O` here?
A: Its value is -0.995%.

Q: Which “% Inhibition @ 10 uM” value does the source give for `Cc1ccc(S(=O)(=O)Cc2nc(-c3ccc(C(=O)NC(C)c4ccccc4)cc3)oc2C)cc1` (centres unmarked) here?
A: The value was 0.107%.

Q: With `CCn1ncc(Br)c1C(=O)Nc1ccc(S(=O)(=O)Nc2ccc(OC)cc2)cc1` as the compound, how does the “% Inhibition @ 10 uM” value read?
A: Its value is -4.43%.

Q: `COc1ccc(C)cc1N(CC(N)=O)S(=O)(=O)c1ccc(C)cc1` was tested. Which “% Inhibition @ 10 uM” value did it give?
A: The value was 0.189%.

Q: With `COCCCNC(=O)c1ccc(CS(=O)c2ccccc2Cl)o1` (centres unmarked) as the compound, how does the “% Inhibition @ 10 uM” value read?
A: The value was -0.716%.
